# Hit rate of the full screen: of about 150,000 compounds, about 540 (0.36%) showed an effect of 50% or more. The list shows a part of the results.
# System: Plasmodium falciparum
# Experiment: Primary screen in NF54 nanoGlo assay, in single point, at 2uM, 72h; a lower Z score goes with more inhibition
# Format: functional, Erythrocyte
# Conditions: timepoint 72 hour
SMILES,% Inhibition [%],Z score
CNc1nc(-c2ccccc2)nnc1C(F)(F)F,35,-4.55
COC(=O)c1c(-c2cccc(Cl)c2)noc1Nc1cc(C)ccc1C,-8,1.46
CC(C)c1nc(CN(C)Cc2nnc3ccccn23)cs1,-6,1.07
COC[C@H]1CCCN(CC(=O)Nc2cccnn2)CC1,-3,0.48
O=C(NC1CCS(=O)(=O)CC1)c1nc2cc(Cl)ccc2s1,-6,1.25
Cc1cc(NC(=O)c2n[nH]c3ccccc23)n(Cc2ccccn2)n1,-16,1.59
CCn1c(C)nnc1CN[C@H](c1ccccc1Cl)C(C)C,-8,1.46
O=C(NCCN1CCCCC1)c1ccc(-c2ccc3[nH]c(CO)nc3c2)cc1,10,-1.24
O=C1CCCc2c1cnc1c2c(O)nc(=O)n1CCc1ccccc1,10,-1.19
Cc1cccc(-c2noc(CCC(=O)N3CC[C@H](CCOc4ccccc4)C3)n2)c1,-3,0.44
Cc1cc(NC(=O)Cc2nc(C)c(C(=O)NCc3ccccc3)s2)ccc1F,23,-2.89
O=C(C[C@H]1CCCO1)Nc1ccc2oc(-c3cc(F)ccc3Br)nc2c1,-5,0.68
CNC(=O)c1cccc(NC(=O)Nc2cccc3ccn(C)c23)n1,15,-1.69
COc1cccc(CNc2ccc(CS(C)(=O)=O)c(Cl)c2)n1,-30,3.55
Cc1nccn1CC(=O)N1CCN([C@@H](C)c2nccs2)CC1,-14,2.73
CCc1nnc(CN2CCC(C(=O)NCc3ccccc3)CC2)o1,0,-0.03
CCc1cc(C(=O)NCc2cccnc2)cs1,-20,1.83
CC(=O)NCc1csc([C@H]2CCCN(S(=O)(=O)c3ccccc3Cl)C2)n1,-5,0.57
C#CCN(C(=O)C[C@H]1C(=O)NCCN1C1Cc2ccccc2C1)C1CCCCC1,-12,1.75
CC1=NO[C@H](C(=O)NCc2ccc(N3CCCC3=O)cc2)C1,17,-2.21
CCOc1ccc(S(=O)(=O)N(C)C)cc1NC(=O)CCC(C)C,-10,1.52
Cc1ccc(C(=O)N2CCN=C2N2CCN(c3cccc(Cl)c3)CC2)cc1,-10,1.66
CN(CCC(=O)NC(N)=O)[C@H](c1ccc(Cl)cc1)C(F)(F)F,-4,0.75
CCC(CC)(CO)CN(C)C(=O)CC1CC(C)(C)NC(C)(C)C1,2,-0.32
COc1ccc2c(=O)c(C(=O)NCCN3CCOCC3)c[nH]c2c1,0,0.04
Cc1ccnc(-n2cc(S(=O)(=O)Nc3onc(C)c3C)cn2)c1,-17,1.48
CS(=O)(=O)NC[C@H]1CCCN(c2nnc(-c3ccccc3)s2)C1,10,-1.59
COc1ccc(NC(=O)Nc2nn(C)cc2-c2ccccc2)cc1,-15,1.89

SMILES,% Inhibition [%],Z score
CC(C)c1cc(C(=O)N2CCC(n3cc(-c4ccccn4)nn3)CC2)[nH]n1,-8,1.22
C=CCN1CC[C@H](N(C)c2nc(C)cc(C)n2)C1=O,20,-2.36
CC(C)CN(CCN(C)C)C(=O)c1[nH]ncc1Br,-5,0.6
Cc1cccc(C(=O)N(C)Cc2ccsc2)n1,-2,0.32
CCC(C)n1ncc(C(=O)N2CCN(C(C)C(N)=O)CC2)c1C1CC1 (stereo not given),-8,1.08
COC[C@@H](N)C(=O)N1CCC2(CC1)CC(=O)N(Cc1ccc(Cl)cc1)C2,-8,1.44
CCOC(=O)[C@]12CCCN[C@@H]1CCN(C(=O)c1ccc3c(c1)CCO3)C2,-14,2.63
C[C@@]1(C(=O)NC2CCCCC2)Oc2cccnc2NC1=O,-8,1.4
CN(C)Cn1c(=S)oc2cc(S(=O)(=O)Nc3ccccc3Cl)ccc21,-13,1.62
Cc1cc(-c2cc(O)n(-c3ccccc3)n2)n(C)n1,-39,4.56
COc1cc(C)ccc1OCc1cncc(-c2ccc(F)c(F)c2)c1,2,-0.3
O=S(=O)(NCc1nc(-c2cc(C3CC3)on2)no1)N1CCOCC1,-11,1.37
O=C(C1CC2CCC1C2)N1CCN(Cc2nnc3n2CCCCC3)CC1 (stereo not given),10,-1.32
Cc1cccc(CN2CCN(C(=O)NCC3(C)COC3)[C@@H](C)C2=O)c1,-7,1.38
CCOC(=O)CCN(CC1CC1)CN1C(=O)c2cc(Cl)c(Cl)cc2C1=O,5,-0.51
CCc1ccc(C(=O)N2CCN(CC3CCC3)C[C@H](O)C2)[nH]1,-12,1.33
Cc1noc(-c2c(NC(=O)CCc3c(C)noc3C)sc3c2CCOC3)n1,-17,2.61
Cc1cnc(C(=O)N(C)Cc2occc2C)o1,-1,0.08
O=C(NCc1nnc2n1CCOCC2)Nc1nsc2ccccc12,-15,2.5
Cc1ccccc1NC(=O)N1CCN(Cc2nc3ccc(Cl)cc3o2)CC1,-5,0.77
CCCCNC(=O)Nc1ccc(OC(C)C)nn1,-13,2.1
Cc1ccc(CS(=O)(=O)c2nnc([C@H](Cc3ccccc3)NC(=O)OC(C)(C)C)o2)cc1,1,-0.06
O=C1CC[C@H](C(=O)N2CCOc3ccc(Br)cc3C2)N1,-1,0.19
O=C(NCc1c[nH]nn1)[C@@H]1CCCN1c1ncnc2ccccc12,-3,0.26
CC[C@@]1(C)Cc2ccccc2-c2[nH]c(=O)n(-c3ccc(F)cc3)c(=O)c21,-12,1.93
CC1CCCC(OCC(=O)NCCc2nnc[nH]2)C1 (stereo not given),-13,2.18
O=C(Nc1ccccc1)c1csc(-c2ccc(OCc3ccccc3)cc2)n1,4,-0.43

# — ChEMBL document CHEMBL4888484, “Replenishing the malaria drug discovery pipeline: Screening and hit evaluation of the MMV Hit Generation Library 1 (HGL1) against asexual blood stage Plasmodium falciparum ,using a nano luciferase reporter read-out” (2022)
